Source: PubChem BioAssay AID360 (National Center for Advancing Translational Sciences (NCATS), 2006)
In all, about 48,000 compounds went through this assay and about 550 (1.1%) were called active. About 4% were inconclusive and are not listed. Rule as the data show it: active = potency below about 15 µM; inconclusive = mostly about 16 µM to 33 µM; inactive = weaker than that. The list shows a part of the results.

molecular target: Lysosomal acid glucosylceramidase (Homo sapiens) (UniProt P04062); assay: Glucocerebrosidase; details: purified enzyme, resorufin glucoside fluorescence (screen aimed at inhibitors), 20 min;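 also: the screen sought inhibitors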
Chain of UniProt P04062 (P04062 whole entry, looked up): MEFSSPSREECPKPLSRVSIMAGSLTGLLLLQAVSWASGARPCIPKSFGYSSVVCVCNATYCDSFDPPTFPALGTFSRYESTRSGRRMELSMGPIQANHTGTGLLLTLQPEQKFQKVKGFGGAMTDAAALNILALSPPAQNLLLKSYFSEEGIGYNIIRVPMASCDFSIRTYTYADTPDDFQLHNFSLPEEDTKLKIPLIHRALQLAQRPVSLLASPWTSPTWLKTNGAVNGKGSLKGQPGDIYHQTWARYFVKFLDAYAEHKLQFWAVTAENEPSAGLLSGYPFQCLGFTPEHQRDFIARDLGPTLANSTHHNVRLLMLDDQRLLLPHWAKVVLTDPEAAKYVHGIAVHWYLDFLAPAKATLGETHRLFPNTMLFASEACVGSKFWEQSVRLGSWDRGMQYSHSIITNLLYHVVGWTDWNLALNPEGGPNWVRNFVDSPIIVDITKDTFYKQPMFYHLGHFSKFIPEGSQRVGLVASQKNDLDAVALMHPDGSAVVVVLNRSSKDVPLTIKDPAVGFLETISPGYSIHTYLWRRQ
In short: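 Compounds titrated against 0.2 nM normal enzyme, 30 uM resorufin beta-D-glucopyranoside substrate, citrate/phosphate buffer with taurocholate and tween-20, pH 5.9. Reaction ran 20 min at room temperature; fluorescence (Ex 548/Em 600) gave AC50.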
Potency is read from the fitted curve at half-maximal effect.

Potency, inactive:
O=S(=O)(c1ccc(C2=CSC3=NCCN23)cc1)N1CCOCC1 > 76.9 µM, CCOC(=O)c1cc2sc(C)cc2n1C(C)C(=O)OCC (stereo unspecified) > 76.9 µM, Cc1noc(C)c1COc1cccc(C(=O)Oc2ccc3c(c2)OCO3)c1 > 76.9 µM, COc1ccccc1S(=O)(=O)Cc1ccc(C(=O)NC2CCCCC2)o1 > 76.9 µM, CC(C)CCn1c(=O)c2ccccc2n2c(COC(=O)c3ccc(S(=O)(=O)N(C)C)cc3)nnc12 > 76.9 µM, Cn1c(=O)n(C)c2cc(S(=O)(=O)NCCc3ccccc3)ccc21 > 76.9 µM, O=C(CSc1nnc(-c2cccs2)n1Cc1ccco1)c1ccc2c(c1)OCO2 > 76.9 µM, O=c1[nH]c(CN2CCN(Cc3ccccc3)CC2)nc2sc3c(c12)CCC3 > 76.9 µM, Cc1ccn2c(NC3CCCCC3)c(C)nc2c1 > 76.9 µM, CCOc1ccccc1C1NC(=O)NC(C)=C1C(=O)OC1CCCC1C (stereo unspecified), Cc1cc2nc(SC(C)C(=O)O)[nH]c2cc1C (stereo unspecified) > 76.9 µM, CN(C)c1ccc(CN(C(=O)C2COc3ccccc3O2)C2CCS(=O)(=O)C2)cc1 (stereo unspecified) > 76.9 µM, COc1cc(NS(=O)(=O)c2cccc3nsnc23)c(C(=O)O)cc1OC > 76.9 µM, CC(C)(C)NC(=O)C1N(c2cccnc2)C(=O)C2C(C(=O)Nc3ccccc3F)C3(C)C=CC21O3 (stereo unspecified) > 76.9 µM, CC(C)N1C(=O)c2ccc(C(=O)O)cc2C1=O > 76.9 µM, CCOC(=O)C(CCSC)NC(=O)CN (stereo unspecified) > 76.9 µM, COC(=O)Nc1sc2c(c1C(=O)NCc1ccco1)CCCC2 > 76.9 µM, CCOC(=O)C1CCN(C(=O)CCc2nc3ccccc3[nH]2)CC1 > 76.9 µM, Cc1ccc(S(=O)(=O)Nc2ccc3oc(=O)sc3c2)c(C)c1 > 76.9 µM, CCCCOC(=O)CSc1nnc(-c2ccc(Cl)cc2Cl)o1 > 76.9 µM, Cc1cc(=O)[nH]c(SCC(=O)Nc2nnc(CC(C)C)s2)n1 > 76.9 µM, COc1ccc(NC(=O)c2oc3ccc(S(=O)(=O)N4CCC5(CC4)OCCO5)cc3c2C)cc1 > 76.9 µM, CC(CCO)Nc1nc2c(c(=O)n(C)c(=O)n2C)n1Cc1cccc(Br)c1 (stereo unspecified) > 76.9 µM, Cc1nc2c(C(=O)NCc3ccc4c(c3)OCO4)c[nH]n2c(=O)c1Cl > 76.9 µM, O=C(CCN1C(=O)C2C3C=CC(C3)C2C1=O)Nc1ccc(F)cc1 (stereo unspecified) > 76.9 µM, COc1ccc(OC)c(NC(=O)CS(=O)(=O)c2ccccc2)c1 > 76.9 µM, COc1nc(NCc2ccco2)nc(N2CCC(C)CC2)n1 > 76.9 µM, CN(C)CCSc1nc(N)c2c3c(sc2n1)CN(C)CC3 > 76.9 µM, O=C1CN(C(=O)COC(=O)C2=COCCO2)c2ccccc2N1 > 76.9 µM, COc1ccc(-n2cc(-c3ccccc3)c3c(N4CCN(CCO)CC4)ncnc32)cc1, CCN(CC)c1ccc(C2C3CCCCC3(O)CCN2CC(=O)N2CCCCC2)cc1 (stereo unspecified) > 76.9 µM, CCCN(c1nc(C)cc(OC)n1)S(=O)(=O)c1ccccc1 > 76.9 µM, O=C(CSc1nc2ccccc2o1)NCC(=O)c1ccccc1 > 76.9 µM, CC(C)C(=O)Nc1ccc(NC(=O)c2cccc(F)c2)cn1 > 76.9 µM, COc1cc(C)c(N)cc1C(C)C > 76.9 µM, O=C(CC(C(=O)N1CCc2ccccc21)n1ccnc1)N1CCc2ccccc2C1 (stereo unspecified) > 76.9 µM, O=C(O)CCCNS(=O)(=O)c1ccc(Br)s1 > 76.9 µM, COc1cccc2cc(C(=O)N(C)C)c(=O)oc12 > 76.9 µM, Cc1csc2nc(CNC(=O)c3ccco3)cn12 > 76.9 µM, CCCn1c2ccccc2c2nc3ccccc3nc21 > 76.9 µM, CCOC(=O)/C(C#N)=C1/SC(CC)C(=O)N1c1ccc(C)cc1 (stereo unspecified) > 76.9 µM, c1n[nH]c(NC2=NCCC2)n1 > 76.9 µM, COc1cc2[nH]c(=O)n(CCCC(=O)NCCc3ccccc3)c(=O)c2cc1OC > 76.9 µM, CCc1nc(N)c(C#N)c(-c2ccc(OC)c(OC)c2)c1C > 76.9 µM, CC(C)C[C@H](NC(=O)Nc1cccc(C(F)(F)F)c1)C(=O)O > 76.9 µM, Cc1c2c(nc3c(C(=O)NC4CCCC4)cnn13)CCCC2 > 76.9 µM, O=C(NCc1ccccc1)N[C@@H](Cc1c[nH]c2ccccc12)C(=O)O > 76.9 µM, CCNS(=O)(=O)c1ccc(NC(=O)Cn2nc(C(F)(F)F)cc2C)cc1 > 76.9 µM, CCOC(=O)c1[nH]c(C)c(C(=O)N2CCN(c3ccc(F)cc3)CC2)c1C > 76.9 µM, COc1cccc(NC(=O)C2CCCN2C(=O)Nc2ccccc2F)c1 (stereo unspecified) > 76.9 µM, CCn1nc(NS(=O)(=O)c2ccccc2)c2cc3cccc(C)c3nc21 > 76.9 µM, COc1ccc(C(=O)N2CCN(c3nc4cc(C)ccc4cc3C#N)CC2)c(OC)c1 > 76.9 µM, CC1=NOC2(C1)N(C)c1ccccc1C2(C)C (stereo unspecified) > 76.9 µM, N#CCCNCC1(c2ccccc2)CCCC1 > 76.9 µM, Cn1c(=O)[nH]c(=O)c2c1nc(CN1CCN(c3ccc(F)cc3)CC1)n2CCN1CCOCC1 > 76.9 µM, COc1ccc(N2CCN(C(=O)C3CCN(S(=O)(=O)N4CCOCC4)CC3)CC2)cc1 > 76.9 µM, CCCS(=O)(=O)N1CCCC(C(=O)NCCCN2CCN(c3ccc(F)cc3)CC2)C1 (stereo unspecified) > 76.9 µM, O=c1[nH]c(-c2cccnc2)nc2ccccc12 > 76.9 µM, COc1cccc(N2CCN(C(=O)NC3CCCCC3)CC2)c1 > 76.9 µM, CC(=O)NCCC(=O)Nc1ccc(C)c(F)c1 > 76.9 µM, COc1cc(-c2nc(-c3ccc(-c4ccccc4)nc3OC)no2)cc(OC)c1OC > 76.9 µM, Cc1cc(C)cc(OCC(=O)Nc2ccc(N3CCN(S(C)(=O)=O)CC3)cc2)c1 > 76.9 µM, COC(=O)CSc1nnc(CNC(=O)c2cc(OC)c(OC)c(OC)c2)n1C > 76.9 µM, CC(C)OCCCNC(=O)Cn1ncc2c(=O)oc3ccccc3c21 > 76.9 µM, O=C(OCc1c(Cl)cccc1Cl)c1cccnc1 > 76.9 µM, Cc1cc(NC(=O)CSc2ncn(-c3ccccc3)n2)no1 > 76.9 µM, C=C(C)COc1ccc(-c2[nH]ncc2Oc2cccc(OC)c2)c(O)c1 > 76.9 µM, N#Cc1cccc2cnccc12 > 76.9 µM, COc1ccc(C2N(C(=O)CN3CCOCC3)CCN2S(=O)(=O)c2ccccc2)cc1 (stereo unspecified) > 76.9 µM, Cc1nn2c3ccccc3nc2n(C)c1=O > 76.9 µM, Cc1cnc(NC(=O)CSc2nc3ccccc3c(=O)[nH]2)s1 > 76.9 µM, CC1Cc2nc(SCC(=O)Nc3ccccc3F)n(C)c(=O)c2S1 (stereo unspecified) > 76.9 µM, COc1ccc2cc(C#N)c(N3CCN(Cc4nnnn4CCC(C)C)CC3)nc2c1 > 76.9 µM, COC(=O)c1cccc(S(=O)(=O)N2CCN(c3nc4ccccc4s3)CC2)c1 > 76.9 µM, Cn1cnnc1SCC(=O)c1ccco1 > 76.9 µM, COC(=O)CSc1nnc(-c2ccc(NS(=O)(=O)c3ccccc3)cc2)o1 > 76.9 µM, CCOC(=O)C1CCN(C(=O)CSc2cc(=O)n(C)c3ccccc23)CC1 > 76.9 µM, Cc1ccc(OCc2nnc(SCc3nc4ccccc4[nH]3)n2Cc2ccco2)cc1 > 76.9 µM, COc1ccc(N2CCN(C(=O)CCS(=O)(=O)c3cccc4nsnc34)CC2)cc1 > 76.9 µM, CC(=O)Nc1ccc(NC(=O)CSC2=NCCS2)cc1 > 76.9 µM, CCOCCCN(C(=O)CNC(=O)c1ccco1)C(C(=O)NC1CCCC1)c1ccccc1C (stereo unspecified) > 76.9 µM, CCOc1ncccc1C(=O)OCc1nnc(-c2ccccc2)o1 > 76.9 µM, O=C(COC(=O)CCCc1c[nH]c2ccccc12)Nc1ccc2c(c1)OCO2 > 76.9 µM, CC1N=C2c3ccccc3N=C(SCc3cc(=O)n4ccccc4n3)N2C1=O (stereo unspecified) > 76.9 µM, O=C(CCn1c(=O)oc2ccccc21)NCCCN1CCN(c2ccc(F)cc2)CC1 > 76.9 µM, Cc1ccc(Oc2nc3ccccc3n3c(C)nnc23)cc1 > 76.9 µM, CN(C(=O)COc1ccccc1)c1nnc(-c2cccnc2)s1 > 76.9 µM, O=C(Cc1ccc(S(=O)(=O)N2CCOCC2)s1)Nc1ccc2c(c1)CCC2 > 76.9 µM, C=CCN1C(=O)C2C(C(=O)NC3CCCCC3)C3C=CC2(O3)C1C(=O)NC1CCCC1 (stereo unspecified) > 76.9 µM, C=CCn1c(SCC2=C(C(=O)OCC)C(C)NC(=O)N2)nnc1C1CCCCC1 (stereo unspecified) > 76.9 µM, CCOc1ccc(OCC)c(NC(=O)C2C3C=CC(O3)C2C(=O)NCc2ccco2)c1 (stereo unspecified) > 76.9 µM
